In the supplement of paper PMC8728848:
The other results are listed elsewhere or left out.

What was measured:
Assay in all cases: glycan array binding signal (z-score within array); higher = stronger binding
Conditions in all cases: glycan notation: IUPAC condensed, linker removed
[1] = biological target: Neu5Ac(a2-3)Gal(b1-3)GlcNAc6S
In short: (§1)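 Negative Z-scores can be read as non-binding. The Z-score is calculated within each array and then averaged across arrays of one protein sequence at different concentrations or buffers and across linkers. Arrays, 3228 in all, were curated from the Consortium for Functional Glycomics database and kept only where the protein sequence was available.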

[2] = biological target: Neu5Ac(a2-3)Gal(b1-3)[Fuc(a1-4)]GlcNAc
In short: as §1

[3] = biological target: Neu5Ac(a2-3)Gal(b1-3)[Fuc(a1-4)]GlcNAc(b1-3)Gal(b1-3)[Fuc(a1-4)]GlcNAc
In short: as §1

[4] = biological target: Neu5Ac(a2-3)Gal(b1-3)[Fuc(a1-4)]GlcNAc(b1-3)Gal(b1-4)[Fuc(a1-3)]GlcNAc
In short: as §1

[5] = biological target: Neu5Ac(a2-3)Gal(b1-3)[GlcNAc(b1-6)]GalNAc
In short: as §1

[6] = biological target: Neu5Ac(a2-3)Gal(b1-3)[Neu5Ac(a2-6)]GalNAc
In short: as §1

[7] = biological target: Neu5Ac(a2-3)Gal(b1-3)[Neu5Ac(a2-6)]GlcNAc(b1-3)[Fuc(a1-3)[Gal(b1-4)]GlcNAc(b1-6)]Gal(b1-4)Glc
In short: as §1

[8] = biological target: Neu5Ac(a2-3)Gal(b1-3)]Neu5Ac(a2-3)Gal(b1-4)]GlcNAc
In short: as §1

Neu5Ac(a2-3)Gal(b1-4)Glc = biological target: Neu5Ac(a2-3)Gal(b1-4)Glc
In short: as §1

[9] = biological target: Neu5Ac(a2-3)Gal(b1-4)GlcNAc
In short: as §1

[10] = biological target: Neu5Ac(a2-3)Gal(b1-4)GlcNAc(b1-2)Man
In short: as §1

[11] = biological target: Neu5Ac(a2-3)Gal(b1-4)GlcNAc(b1-2)Man(a1-3)[GlcNAc(b1-4)][Neu5Ac(a2-3)Gal(b1-4)GlcNAc(b1-2)Man(a1-6)]Man(b1-4)GlcNAc(b1-4)GlcNAc
In short: as §1

[12] = biological target: Neu5Ac(a2-3)Gal(b1-4)GlcNAc(b1-2)Man(a1-3)[Neu5Ac(a2-3)Gal(b1-4)GlcNAc(b1-2)Man(a1-6)]Man(b1-4)GlcNAc(b1-4)GlcNAc
In short: as §1

[13] = biological target: Neu5Ac(a2-3)Gal(b1-4)GlcNAc(b1-2)Man(a1-3)[Neu5Ac(a2-3)Gal(b1-4)GlcNAc(b1-2)Man(a1-6)]Man(b1-4)GlcNAc(b1-4)[Fuc(a1-6)]GlcNAc
In short: as §1

[14] = biological target: Neu5Ac(a2-3)Gal(b1-4)GlcNAc(b1-2)Man(a1-3)[Neu5Ac(a2-6)Gal(b1-4)GlcNAc(b1-2)Man(a1-6)]Man(b1-4)GlcNAc(b1-4)GlcNAc
In short: as §1

[15] = biological target: Neu5Ac(a2-3)Gal(b1-4)GlcNAc(b1-2)[Neu5Ac(a2-3)Gal(b1-4)GlcNAc(b1-4)]Man(a1-3)[GlcNAc(b1-4)][Neu5Ac(a2-3)Gal(b1-4)GlcNAc(b1-2)[Neu5Ac(a2-3)Gal(b1-4)GlcNAc(b1-6)]Man(a1-6)]Man(b1-4)GlcNAc(b1-4)GlcNAc
In short: as §1

[16] = biological target: Neu5Ac(a2-3)Gal(b1-4)GlcNAc(b1-2)[Neu5Ac(a2-3)Gal(b1-4)GlcNAc(b1-4)]Man(a1-3)[GlcNAc(b1-4)][Neu5Ac(a2-3)Gal(b1-4)GlcNAc(b1-4)Man(a1-6)]Man(b1-4)GlcNAc(b1-4)GlcNAc
In short: as §1

[17] = biological target: Neu5Ac(a2-3)Gal(b1-4)GlcNAc(b1-2)[Neu5Ac(a2-3)Gal(b1-4)GlcNAc(b1-6)]Man(a1-6)[Neu5Ac(a2-3)Gal(b1-4)GlcNAc(b1-2)Man(a1-3)]Man(b1-4)GlcNAc(b1-4)GlcNAc
In short: as §1

[18] = biological target: Neu5Ac(a2-3)Gal(b1-4)GlcNAc(b1-2)[Neu5Ac(a2-3)Gal(b1-4)GlcNAc(b1-6)]Man(a1-6)[Neu5Ac(a2-3)Gal(b1-4)GlcNAc(b1-2)Man(a1-3)][GlcNAc(b1-4)]Man(b1-4)GlcNAc(b1-4)GlcNAc
In short: as §1

[19] = biological target: Neu5Ac(a2-3)Gal(b1-4)GlcNAc(b1-3)Gal
In short: as §1

[20] = biological target: Neu5Ac(a2-3)Gal(b1-4)GlcNAc(b1-3)Gal(b1-3)GlcNAc
In short: as §1

[21] = biological target: Neu5Ac(a2-3)Gal(b1-4)GlcNAc(b1-3)Gal(b1-4)GlcNAc
In short: as §1

[22] = biological target: Neu5Ac(a2-3)Gal(b1-4)GlcNAc(b1-3)Gal(b1-4)GlcNAc(b1-2)Man(a1-3)[Neu5Ac(a2-3)Gal(b1-4)GlcNAc(b1-3)Gal(b1-4)GlcNAc(b1-2)Man(a1-6)]Man(b1-4)GlcNAc(b1-4)GlcNAc
In short: as §1

[23] = biological target: Neu5Ac(a2-3)Gal(b1-4)GlcNAc(b1-3)Gal(b1-4)GlcNAc(b1-3)Gal(b1-4)GlcNAc
In short: as §1

[24] = biological target: Neu5Ac(a2-3)Gal(b1-4)GlcNAc(b1-3)Gal(b1-4)GlcNAc(b1-3)Gal(b1-4)GlcNAc(b1-2)Man(a1-3)[Neu5Ac(a2-3)Gal(b1-4)GlcNAc(b1-3)Gal(b1-4)GlcNAc(b1-3)Gal(b1-4)GlcNAc(b1-2)Man(a1-6)]GalNAc
In short: as §1

[25] = biological target: Neu5Ac(a2-3)Gal(b1-4)GlcNAc(b1-3)Gal(b1-4)GlcNAc(b1-3)GalNAc
In short: as §1

[26] = biological target: Neu5Ac(a2-3)Gal(b1-4)GlcNAc(b1-3)Gal(b1-4)GlcNAc(b1-3)[Neu5Ac(a2-3)Gal(b1-4)GlcNAc(b1-3)Gal(b1-4)GlcNAc(b1-6)]GalNAc
In short: as §1

[27] = biological target: Neu5Ac(a2-3)Gal(b1-4)GlcNAc(b1-3)Gal(b1-4)GlcNAc(b1-6)[Gal(b1-3)]GalNAc
In short: as §1

[28] = biological target: Neu5Ac(a2-3)Gal(b1-4)GlcNAc(b1-3)Gal(b1-4)[Fuc(a1-3)]GlcNAc
In short: as §1

[29] = biological target: Neu5Ac(a2-3)Gal(b1-4)GlcNAc(b1-3)GalNAc
In short: as §1

B1: CFEM-SCL (Saccharomyces cerevisiae), O13547 (protein)
chain: MRATTLLSSVVSLALLSKEVLATPPACLLACVAQVGKSSSTCDSLNQVTCYCEHENSAVKKCLDSICPNNDADAAYSAFKSSCSEQNASLGD
glycan array binding signal (z-score) [1]: -0.283
glycan array binding signal (z-score) [2]: -0.204
glycan array binding signal (z-score) [3]: -0.195
glycan array binding signal (z-score) [4]: -0.234
glycan array binding signal (z-score) [5]: -0.226
glycan array binding signal (z-score) [6]: -0.091
glycan array binding signal (z-score) [7]: -0.267
glycan array binding signal (z-score) [8]: -0.332
glycan array binding signal (z-score) (Neu5Ac(a2-3)Gal(b1-4)Glc): -0.253
glycan array binding signal (z-score) [9]: -0.229
glycan array binding signal (z-score) [10]: -0.135
glycan array binding signal (z-score) [11]: -0.18
glycan array binding signal (z-score) [12]: -0.35
glycan array binding signal (z-score) [13]: -0.197
glycan array binding signal (z-score) [14]: -0.265
glycan array binding signal (z-score) [15]: -0.315
glycan array binding signal (z-score) [16]: -0.341
glycan array binding signal (z-score) [17]: -0.312
glycan array binding signal (z-score) [18]: -0.274
glycan array binding signal (z-score) [19]: -0.244
glycan array binding signal (z-score) [20]: -0.321
glycan array binding signal (z-score) [21]: -0.349
glycan array binding signal (z-score) [22]: -0.019
glycan array binding signal (z-score) [23]: -0.311
glycan array binding signal (z-score) [24]: 0.212
glycan array binding signal (z-score) [25]: -0.274
glycan array binding signal (z-score) [26]: -0.155
glycan array binding signal (z-score) [27]: 0.23
glycan array binding signal (z-score) [28]: -0.362
glycan array binding signal (z-score) [29]: -0.277
